# Experimental data reported in paper PMC12040169 (PLOS Biology, 2025).
# The other results are listed elsewhere or left out.
# System: T1, C. trachomatis L2/434/Bu expressing GFP (CTL2-GFP)
# T1 construct: L2/434/Bu GFP intracellular growth in HeLa cells
# Parameters: species or system HeLa; C. trachomatis total inclusion area by high-content imaging, normalised to DMSO
# Details: total inclusion area; 28.5 h, 10 µM; inhibitor
# Outline: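 Imaging read-out: GFP inclusions and Hoechst nuclei captured by high-content imaging after fixation. Inclusion area/number = chlamydial growth; nuclei count = host cell viability. MIC calculated per earlier method.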
row,Structure (SMILES),% of control remaining
1,COc1ccc([C@@]23CC[C@@H](NC(=O)Nc4cccc(Cl)c4)C[C@@H]2CN(C)C3)cc1OC [CBK081375T],84.9962
2,CCc1nnc(NC(=O)c2cccc(F)c2)s1 [CBK273362],85.5274
3,Nc1nc(N)nc(-c2ccc(-c3nc(N)nc(N)n3)cc2)n1 [CBK261494],91.1683
4,Cc1sc2ncnc(NCCOCCO)c2c1C [CBK265907],124.249
5,O=S(=O)(c1ccc(F)cc1)N1CCCC1c1cccc(Cc2ccc(F)cc2)n1 (stereo not shown) [CBK286249],85.7894
6,O=[N+]([O-])c1c(N2CCN(CCO)CC2)ccc2nonc12 [CBK264397],103.169
7,O=C(CCc1ccc(O)c(O)c1)NNC(=S)Nc1ccccc1C(F)(F)F [CBK267104],123.277
8,CC(=O)c1ccc(-c2cnc(N)c(N3CCN(C)CC3)n2)s1 [CBK063432],129.945
9,Oc1cccnc1CCc1ccccc1 [CBK026334C],46.9376
10,CCC(C)(C)c1ccc(S(=O)(=O)Nc2ccc3ncsc3c2)cc1 [CBK043490],70.4758
11,Cc1ccc(S(=O)(=O)N(CC(=O)Nc2ccc3c(c2)OCCO3)Cc2ccccc2F)cc1 [CBK265157],81.3208
12,Cc1cccc(CNCC2CCN(C(=O)OC(C)(C)C)CC2)n1 [CBK056713],72.4721
13,Cn1c(Cc2nn(C)c(=O)c3ccccc23)nnc1SCC(=O)C(C)(C)C [CBK010985],34.3076
14,Cc1ccc(OCC(=O)Nc2sc3c(c2C(N)=O)CCCCC3)c([N+](=O)[O-])c1 [CBK268148],116.987
15,CC(C)N(C)C(=O)Cc1csc(N)n1 [CBK014608],36.0152
16,C=C(C)CN1CCN(C(=O)C2Cc3cc(Cl)ccc3O2)CC1 (stereo not shown) [CBK282639],128.935
17,Cn1c(=O)c2c(ncn2Cc2ccc(C#N)cc2)n(C)c1=O [CBK134217],78.7545
18,COc1ccccc1-c1nc2ccccn2c1CO [CBK173210],42.4275
19,O=[N+]([O-])c1ccc(O)c(C(C#Cc2ccccc2)N2CCOCC2)c1 (stereo not shown) [CBK262741],101.431
20,O=S(=O)(Nc1cccc(Cl)c1)c1ccc(OC(F)(F)F)cc1 [CBK044769],66.9498
21,COCCNC(=O)c1sc2ncn(CC(=O)Nc3ccccc3OC)c(=O)c2c1C [CBK071846],81.2387
22,Cn1c(CSCc2ccccc2)nnc1SCC(=O)c1ccc(Br)cc1 [CBK266565],114.477
23,Cc1cn2nc(N3CCN(S(=O)(=O)c4ccccc4[N+](=O)[O-])CC3)sc2n1 [CBK298288],80.1563
24,O=C1C=C(c2ccc([N+](=O)[O-])cc2)Nc2nonc2N1 [CBK261487],95.606
25,Cc1ccc(C2CCCN2C(=O)c2ccc(=O)n(CC(=O)Nc3ccc(F)cc3)c2)cc1C (stereo not shown) [CBK286088],124.314
26,Cc1ccc(C2(O)CCN(Cc3cn(C)nc3C)CC2)cc1 [CBK282753],117.669

row,Structure (SMILES),% of control remaining
1,COCCNc1nccnc1-c1cnc(OC)nc1OC [CBK088558],83.3534
2,Cc1ccc2[nH]c(C3CCCCN3C(=O)c3cscn3)nc2c1 (stereo not shown) [CBK283999],70.5276
3,Cc1ccc(S(=O)(=O)N=C2NCN(C)CN2)cc1 [CBK261972],94.0653
4,CC(C)(C)OC(=O)N1CCC(Oc2cncc(Cl)n2)CC1 [CBK001762],78.3702
5,CC(=O)N1c2ccccc2C(C)=CC1C1CCCC(=O)C1 (stereo not shown) [CBK007219],83.3586
6,Cc1ccc(NC(=O)Cc2cn(C)c3ccccc23)c(C)n1 [CBK200298],100.303
7,CC(C)Nc1ncnc2scc(-c3cccs3)c12 [CBK017085],75.2349
8,CC(C)(C)c1cc(CN(Cc2cc(C(C)(C)C)c(O)c(C(C)(C)C)c2)/N=C\c2ccccc2O)cc(C(C)(C)C)c1O [CBK261990],101.652
9,CC(=O)OC(COc1cccc(Cl)c1)Cn1cnc2cc(C)c(C)cc21 (stereo not shown) [CBK266152],81.671
10,Cc1ncsc1CCS(=O)(=O)N1CCOCC1c1cccc(F)c1 (stereo not shown) [CBK304254],57.4873
11,CN1CCc2c(C#N)c(N)n(N)c(=S)c2C1 [CBK264055],110.726
12,CC(=O)N1CCc2c(sc3nc(N)c(C(=O)NCCc4ccc(F)cc4)c(C(F)(F)F)c23)C1 [CBK269176],118.529
13,COc1cc(OCc2ccccc2)ccc1CN1CCN(Cc2ccccc2)CC1 [CBK074766],84.4922
14,CC1CNCCN1C(=O)c1cnn(-c2cccc(Cl)c2)c1 (stereo not shown) [CBK304238],50.2602
15,O=C(NCc1c(O)c(Cl)cc(Cl)c1Cl)c1ccccc1 [CBK260920],83.7662
16,Cc1oc2ccccc2c1CN(CCN(C)C)Cc1ccncc1 [CBK283097],85.7572
17,Cc1cc(NS(=O)(=O)c2cnn(-c3ccccc3)c2C)n(C)n1 [CBK067252],90.5425
18,OCCN(Cc1cccnc1)Cc1cccn1Cc1ccccc1F [CBK282945],119.262
19,COc1ccc(-c2nc3ccccc3o2)cc1NC(=O)C(C)Oc1ccc(Cl)cc1Cl (stereo not shown) [CBK266787],63.492
20,O=C(NCCCn1ccnc1)c1ccccc1C(=O)c1ccccc1 [CBK262954],98.9306
21,O=C(NCc1ccccn1)c1nn[nH]c1Nc1cccc(Cl)c1 [CBK288030],62.7377
22,COC(=O)c1c(NC(=O)C(=O)NCc2ccccn2)sc2c1CCC2 [CBK269431],86.4106
23,O=C(Nc1ccsc1C(=O)O)c1ccccc1Cl [CBK152440],63.5358
24,Cc1c(CN2CCCC(n3cnc4cc(F)ccc43)C2)cnn1C (stereo not shown) [CBK284478],116.249
25,NS(=O)(=O)c1ccc2nc(NC(=O)c3ccc(N4C(=O)CCC4=O)cc3)sc2c1 [CBK291192],55.3917
26,N#Cc1ccccc1CSc1nc2ccc([N+](=O)[O-])cc2[nH]1 [CBK269589],87.9729
